The list shows a part of the results.
What was measured:
Assay in all cases: glycan array binding signal (z-score within array); higher = stronger binding
Settings in all cases: glycan notation: IUPAC condensed, linker removed
[1] = target: Fuc(a1-3)[Gal(b1-4)]GlcNAc(b1-3)Gal(b1-4)[Fuc(a1-3)]GlcNAc
Method in brief: (§1)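 Arrays were curated from the Consortium for Functional Glycomics database, 3228 in total, and kept only where the protein sequence was available. Binding is expressed as a within-array Z-score. This score was averaged across arrays of the same protein sequence at different concentrations or buffers and across linkers, and negative values can be read as non-binding.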

[2] = target: Fuc(a1-3)[Gal(b1-4)]GlcNAc(b1-3)Gal(b1-4)[Fuc(a1-3)]GlcNAc(b1-3)Gal(b1-4)[Fuc(a1-3)]GlcNAc
Method in brief: as §1

[3] = target: Fuc(a1-3)[Gal(b1-4)]GlcNAc(b1-3)GalNAc
Method in brief: as §1

[4] = target: Fuc(a1-3)[Gal(b1-4)]GlcNAc(b1-6)GalNAc
Method in brief: as §1

[5] = target: Fuc(a1-3)[Gal(b1-4)]GlcNAc(b1-6)[Gal(b1-3)GlcNAc(b1-3)]Gal(b1-4)Glc
Method in brief: as §1

[6] = target: Fuc(a1-3)[Gal(b1-4)]GlcNAc6S
Method in brief: as §1

[7] = target: Fuc(a1-3)[Gal3S(b1-4)]Glc
Method in brief: as §1

[8] = target: Fuc(a1-3)[Gal3S(b1-4)]GlcNAc
Method in brief: as §1

[9] = target: Fuc(a1-3)[Gal3S(b1-4)]GlcNAc6S
Method in brief: as §1

[10] = target: Fuc(a1-3)[GalNAc(b1-4)]GlcNAc
Method in brief: as §1

[11] = target: Fuc(a1-3)[GalNAc(b1-4)]GlcNAc6S
Method in brief: as §1

Fuc(a1-4)GlcNAc = target: Fuc(a1-4)GlcNAc
Method in brief: as §1

Fuc(b1-3)GlcNAc = target: Fuc(b1-3)GlcNAc
Method in brief: as §1

Gal(a1-2)Gal = target: Gal(a1-2)Gal
Method in brief: as §1

Gal(a1-3)Gal = target: Gal(a1-3)Gal
Method in brief: as §1

Gal(a1-3)Gal(b1-3)GlcNAc = target: Gal(a1-3)Gal(b1-3)GlcNAc
Method in brief: as §1

[12] = target: Gal(a1-3)Gal(b1-3)GlcNAc(b1-2)Man
Method in brief: as §1

[13] = target: Gal(a1-3)Gal(b1-3)GlcNAc(b1-2)Man(a1-3)[Gal(a1-3)Gal(b1-3)GlcNAc(b1-2)Man(a1-6)]Man(b1-4)GlcNAc(b1-4)GlcNAc
Method in brief: as §1

[14] = target: Gal(a1-3)Gal(b1-3)GlcNAc(b1-3)GalNAc
Method in brief: as §1

[15] = target: Gal(a1-3)Gal(b1-3)GlcNAc(b1-6)GalNAc
Method in brief: as §1

[16] = target: Gal(a1-3)Gal(b1-3)[Fuc(a1-4)]GlcNAc(b1-2)Man(a1-3)[Gal(a1-3)Gal(b1-3)[Fuc(a1-4)]GlcNAc(b1-2)Man(a1-6)]Man(b1-4)GlcNAc(b1-4)GlcNAc
Method in brief: as §1

Gal(a1-3)Gal(b1-4)Glc = target: Gal(a1-3)Gal(b1-4)Glc
Method in brief: as §1

Gal(a1-3)Gal(b1-4)GlcNAc = target: Gal(a1-3)Gal(b1-4)GlcNAc
Method in brief: as §1

[17] = target: Gal(a1-3)Gal(b1-4)GlcNAc(b1-2)Man
Method in brief: as §1

[18] = target: Gal(a1-3)Gal(b1-4)GlcNAc(b1-2)Man(a1-3)[Gal(a1-3)Gal(b1-4)GlcNAc(b1-2)Man(a1-6)]Man(b1-4)GlcNAc(b1-4)GlcNAc
Method in brief: as §1

[19] = target: Gal(a1-3)Gal(b1-4)GlcNAc(b1-3)GalNAc
Method in brief: as §1

[20] = target: Gal(a1-3)Gal(b1-4)GlcNAc(b1-6)GalNAc
Method in brief: as §1

[21] = target: Gal(a1-3)Gal(b1-4)[Fuc(a1-3)]GlcNAc
Method in brief: as §1

[22] = target: Gal(a1-3)Gal(b1-4)[Fuc(a1-3)]GlcNAc(b1-2)Man(a1-3)[Gal(a1-3)Gal(b1-4)[Fuc(a1-3)]GlcNAc(b1-2)Man(a1-6)]Man(b1-4)GlcNAc(b1-4)GlcNAc
Method in brief: as §1

Gal(a1-3)GalNAc = target: Gal(a1-3)GalNAc
Method in brief: as §1

[23] = target: Gal(a1-3)[Gal(a1-4)]Gal(b1-4)GlcNAc
Method in brief: as §1

[24] = target: Gal(a1-4)Gal(b1-3)GlcNAc(b1-2)Man(a1-3)[Gal(a1-4)Gal(b1-3)GlcNAc(b1-2)Man(a1-6)]Man(b1-4)GlcNAc(b1-4)GlcNAc
Method in brief: as §1

Gal(a1-4)Gal(b1-4)Glc = target: Gal(a1-4)Gal(b1-4)Glc
Method in brief: as §1

Gal(a1-4)Gal(b1-4)GlcNAc = target: Gal(a1-4)Gal(b1-4)GlcNAc
Method in brief: as §1

[25] = target: Gal(a1-4)Gal(b1-4)GlcNAc(b1-2)Man(a1-3)[Gal(a1-4)Gal(b1-4)GlcNAc(b1-2)Man(a1-6)]Man(b1-4)GlcNAc(b1-4)GlcNAc
Method in brief: as §1

[26] = target: Gal(a1-4)Gal(b1-4)GlcNAc(b1-3)Gal(b1-4)Glc
Method in brief: as §1

Gal(a1-4)GlcNAc = target: Gal(a1-4)GlcNAc
Method in brief: as §1

Gal(a1-6)Glc = target: Gal(a1-6)Glc
Method in brief: as §1

B1: PX14367A-bth-493-35-493 (Bacteroides thetaiotaomicron) (protein)
chain: VSSDQVAVAGNAERLFNGAWYNLFEYGTTYANIGYRALQCQDDMMASDVVSRPKYGFNSSYQFNDVAIPSDGRTSFAWYLIYKTIDNCNTAISIKGDSEELRQAQGQALALRAFCYLHLVQHYQFTYLKDKDAPCVPIYTEPTTSGTKPKGKSTVAQVYQQIFDDLNLAQDYLTNYVRKGDGQKFKPNTDVVNGLMARAYLLTGQWGEAAKAAEAARKGYSLMTTTAEYEGFNNISNKEWIWGSPQTLSQSDASYNFYYLDATYVGAYSSFMADPHLMDTFVKGDIRLPLFQWMREGYLGYKKFHMRSDDTADLVLMRSAEMYLIEAEAKVRDGVALDQAVAPLNTLRTARGVGNYDVTGKTKEQVIDEILMERRRELWGEGFGITDVLRNQKAVERMALSEDMQKTEVDCWQEGGSFAKRNPLGHWFLNFPDGKAFSANSSYYLYAIPEKEINANPNL
glycan array binding signal (z-score) [1]: -0.421
glycan array binding signal (z-score) [2]: -0.385
glycan array binding signal (z-score) [3]: 0.127
glycan array binding signal (z-score) [4]: -0.336
glycan array binding signal (z-score) [5]: -0.378
glycan array binding signal (z-score) [6]: -0.31
glycan array binding signal (z-score) [7]: -0.329
glycan array binding signal (z-score) [8]: -0.291
glycan array binding signal (z-score) [9]: -0.293
glycan array binding signal (z-score) [10]: 0.197
glycan array binding signal (z-score) [11]: -0.307
glycan array binding signal (z-score) (Fuc(a1-4)GlcNAc): -0.571
glycan array binding signal (z-score) (Fuc(b1-3)GlcNAc): -0.157
glycan array binding signal (z-score) (Gal(a1-2)Gal): -0.084
glycan array binding signal (z-score) (Gal(a1-3)Gal): 0.237
glycan array binding signal (z-score) (Gal(a1-3)Gal(b1-3)GlcNAc): -0.773
glycan array binding signal (z-score) [12]: 0.052
glycan array binding signal (z-score) [13]: 0.822
glycan array binding signal (z-score) [14]: -0.508
glycan array binding signal (z-score) [15]: -0.007
glycan array binding signal (z-score) [16]: -0.041
glycan array binding signal (z-score) (Gal(a1-3)Gal(b1-4)Glc): -0.294
glycan array binding signal (z-score) (Gal(a1-3)Gal(b1-4)GlcNAc): 0.166
glycan array binding signal (z-score) [17]: -0.302
glycan array binding signal (z-score) [18]: 3.93
glycan array binding signal (z-score) [19]: -0.149
glycan array binding signal (z-score) [20]: -0.504
glycan array binding signal (z-score) [21]: -0.375
glycan array binding signal (z-score) [22]: -0.087
glycan array binding signal (z-score) (Gal(a1-3)GalNAc): -0.317
glycan array binding signal (z-score) [23]: -0.467
glycan array binding signal (z-score) [24]: 2.23
glycan array binding signal (z-score) (Gal(a1-4)Gal(b1-4)Glc): 0.562
glycan array binding signal (z-score) (Gal(a1-4)Gal(b1-4)GlcNAc): 0.078
glycan array binding signal (z-score) [25]: 0.279
glycan array binding signal (z-score) [26]: -0.539
glycan array binding signal (z-score) (Gal(a1-4)GlcNAc): -0.008
glycan array binding signal (z-score) (Gal(a1-6)Glc): -0.506
